# Assay results reported in PubChem BioAssay (NCATS).
# Several values for one entry are separate records, joined by “and”; a condition that tells them apart may be missing. Identical values can stand only once. Inconclusive results, whose numbers are uncertain, are shown with a selection of clear calls. For part of these data: Potencies of inconclusive entries are left out as doubtful fits. For part of these data: “Side channel” marks fits to a control or component signal instead of the main read-out. Activity calls are given as the source filed them. Unless noted, calls follow the shape of the dose curve; as a rule, active = well fitted curve in the direction sought with a large enough effect; inconclusive = small, poorly fitted or top-dose-only effect, or another doubt; inactive = no such curve, though single readings can be large; an effect the other way counts as inactive or inconclusive.
# What was measured:
# [1] = biological target: Retinoic acid receptor RXR-alpha (Homo sapiens) (UniProt P19793); test: qHTS assay for small molecule agonists of retinoid X receptor alpha signaling (AID 588544; calls by dose curve; also: potency is read from the fitted curve at half-maximal effect;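 as to activation: 0% = DMSO basal wells and 100% = reference agonist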); conditions: HEK293T RXRa-UAS-bla, beta-lactamase reporter, 18 h; for Potency: activation: at 76.7 µM (top of the series) unless noted
# Chain of UniProt P19793 (P19793 whole entry, looked up): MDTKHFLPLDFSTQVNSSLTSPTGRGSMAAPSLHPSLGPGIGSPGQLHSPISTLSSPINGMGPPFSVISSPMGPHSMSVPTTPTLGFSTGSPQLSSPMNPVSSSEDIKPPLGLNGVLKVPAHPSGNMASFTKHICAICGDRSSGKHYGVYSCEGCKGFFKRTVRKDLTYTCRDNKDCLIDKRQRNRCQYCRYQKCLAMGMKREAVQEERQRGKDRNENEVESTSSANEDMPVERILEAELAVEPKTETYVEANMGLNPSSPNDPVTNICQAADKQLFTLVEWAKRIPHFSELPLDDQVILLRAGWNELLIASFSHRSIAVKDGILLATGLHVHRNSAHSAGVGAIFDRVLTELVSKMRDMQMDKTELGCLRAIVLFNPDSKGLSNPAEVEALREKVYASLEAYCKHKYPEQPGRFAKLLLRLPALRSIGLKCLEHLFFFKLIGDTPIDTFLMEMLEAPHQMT
# [2] = biological target: Vitamin D3 receptor (Homo sapiens) (UniProt P11473); test: qHTS for Inhibitors of the vitamin D receptor (VDR): Hit Validation in Primary Screen (AID 602199); conditions: VDR-coactivator inhibition assay, qHTS confirmation; also: potency is read from the fitted curve at half-maximal effect
# Chain of UniProt P11473 (P11473 whole entry, looked up, the tested form may be a part): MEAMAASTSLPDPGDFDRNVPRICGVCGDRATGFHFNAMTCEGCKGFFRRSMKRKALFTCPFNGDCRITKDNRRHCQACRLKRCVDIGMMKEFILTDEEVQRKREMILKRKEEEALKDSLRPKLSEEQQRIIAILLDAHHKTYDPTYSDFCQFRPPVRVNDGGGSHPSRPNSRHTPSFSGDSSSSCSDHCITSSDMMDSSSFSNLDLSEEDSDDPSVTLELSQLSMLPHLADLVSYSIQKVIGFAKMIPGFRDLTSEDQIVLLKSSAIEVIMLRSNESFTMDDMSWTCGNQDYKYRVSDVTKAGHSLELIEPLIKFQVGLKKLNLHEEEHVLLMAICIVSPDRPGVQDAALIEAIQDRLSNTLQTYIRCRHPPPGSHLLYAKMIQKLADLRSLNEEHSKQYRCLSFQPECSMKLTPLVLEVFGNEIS
# Outline: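 Fluorescence polarization assay of VDR binding to Alexa 647-labelled SRC2-3 coactivator peptide: 800nM VDR with 5uM LG19078 agonist, compounds, 2 h at room temperature, read Ex 620 nm/Em 688 nm.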
# [3] = biological target: Vitamin D3 receptor (Homo sapiens) (UniProt P11473); test: qHTS for Inhibitors of the vitamin D receptor (VDR): Hit Validation using a Fluorescein Assay (AID 602200); conditions: VDR-coactivator binding, fluorescein fluorescence polarization; also: potency is read from the fitted curve at half-maximal effect
# Outline: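 Fluorescence polarization (Ex 495 nm/Em 520 nm) read after 2 h at room temperature, reporting disruption of binding between 1.5 uM VDR-LBD, liganded by 5 uM LG19078, and 5 nM fluorescein-labelled SRC2-3 coactivator peptide (final concentrations).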
# [4] = qHTS for Inhibitors of the vitamin D receptor (VDR): Hit Validation using a Texas Red Assay (AID 602201); conditions: VDR coregulator binding, Texas Red fluorescence polarization; Potency: agonist-bound VDR ligand-binding domain unless noted; series mostly up to 57.1 µM; also: potency is read from the fitted curve at half-maximal effect; as to activity, negative = inhibition: % is scaled to controls: 0 for no effect and ±100 for the full control effect
# Outline: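 Fluorescence polarization (Ex 595/Em 615 nm) of Texas Red (7 nM) with 1.5 uM VDR-LBD and LG19078 (final concentrations). Compounds were incubated for 2 hours at room temperature.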
# [5] = biological target: Vitamin D3 receptor (Homo sapiens) (UniProt P11473); test: qHTS for Inhibitors of the vitamin D receptor (VDR): Hit Validation using a Beta-Lactamase Assay (AID 602202); conditions: VDR beta-lactamase reporter cells, FRET ratio; cells co-treated with VDR agonist LG190178 unless noted; also: potency is read from the fitted curve at half-maximal effect
# Outline: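 Stably transfected HEK293 cells express a VDR–GAL4 DNA-binding-domain fusion driving a UAS beta-lactamase reporter, stimulated by agonist LG190178. Compounds were added 4 h after plating and incubated 18 h. A FRET beta-lactam substrate was then added for 2 h and cleaved substrate emission read at 447 nm.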
# [6] = qHTS for Inhibitors of the vitamin D receptor (VDR): Hit Validation using a Cytotoxicity Assay (AID 602204); conditions: cytotoxicity counter-screen, cell viability;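 also: cells co-treated with VDR agonist LG190178 at 300 nM; potency is read from the fitted curve at half-maximal effect; nearly all actives have a fitted effect of over 75% in size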
# Outline: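 ATP luminescence, 30 min post-reagent. Exposure: 18 h. Seeding: 20,000 cells/well, 4 h prior to compound. Controls: cycloheximide, DMSO.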
# [7] = biological target: Glutaminase kidney isoform, mitochondrial (Homo sapiens) (UniProt O94925); test: qHTS for Inhibitors of Glutaminase (GLS): LOPAC Validation (AID 624146); conditions: glutaminase enzyme activity inhibition; series mostly up to 46.1 µM;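 also: glutamate product detected by oxidase and peroxidase coupled Amplex red fluorescence gain; % is scaled to controls: 0 for no effect and ±100 for the full control effect; nearly all actives have a fitted effect of over 60% in size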
# Chain of UniProt O94925 (O94925 whole entry, looked up, canonical isoform): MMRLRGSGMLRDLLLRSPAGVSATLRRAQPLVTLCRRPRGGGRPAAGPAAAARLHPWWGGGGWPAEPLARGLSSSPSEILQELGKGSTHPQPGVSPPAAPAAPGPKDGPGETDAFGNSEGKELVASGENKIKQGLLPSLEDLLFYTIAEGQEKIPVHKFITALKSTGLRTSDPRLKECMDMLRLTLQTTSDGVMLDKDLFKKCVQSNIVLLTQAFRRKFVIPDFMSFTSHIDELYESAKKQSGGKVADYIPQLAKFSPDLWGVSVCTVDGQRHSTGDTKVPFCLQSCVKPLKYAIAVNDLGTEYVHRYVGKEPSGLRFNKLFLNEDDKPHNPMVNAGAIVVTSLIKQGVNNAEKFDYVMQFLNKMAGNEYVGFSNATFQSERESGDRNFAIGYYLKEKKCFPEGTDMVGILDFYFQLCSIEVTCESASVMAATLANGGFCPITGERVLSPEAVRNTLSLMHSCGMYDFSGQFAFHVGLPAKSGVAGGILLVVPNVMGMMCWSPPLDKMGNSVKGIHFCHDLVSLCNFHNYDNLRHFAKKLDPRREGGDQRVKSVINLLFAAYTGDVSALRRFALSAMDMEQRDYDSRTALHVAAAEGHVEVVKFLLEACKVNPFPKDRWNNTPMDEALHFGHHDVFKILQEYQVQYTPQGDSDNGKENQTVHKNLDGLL
# Outline: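 Human kidney-isoform GLS in 45 mM KH2PO4 pH 8.2, 0.02% Tween-20, with compound, started with 1mM L-Glutamine (added stock). Glutamate oxidase/HRP/Amplex red coupled fluorescence read at start and after 30 min at RT.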
# [8] = S16 Schwann cell PMP22 intronic element firefly luciferase assay (AID 624032); conditions: S16 rat Schwann cells, PMP22 element FLuc, 24 h; series mostly up to 57.5 µM; also: nearly all actives have a fitted effect of over 30% in size; also: potency is read from the fitted curve at half-maximal effect
# Outline: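 Rat S16 Schwann cells stably carrying a PMP22 intronic element-driven Fluc reporter were seeded overnight, then exposed to compounds for 24 h at 37 °C. Luminescence was normalized to PTC124 (positive control) and DMSO (0% activity).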
# [9] = biological target: Thyroid hormone receptor beta (Homo sapiens) (UniProt P10828); test: qHTS assay for small molecule agonists of thyroid hormone receptor beta signaling (AID 588545; calls by dose curve; also: potency is read from the fitted curve at half-maximal effect); conditions: TR-UAS-bla GripTite HEK 293, beta-lactamase ratio, agonist mode, 18 h; activation: at 76.7 µM, percent of T3 response, DMSO as zero
# Chain of UniProt P10828 (P10828 whole entry, looked up): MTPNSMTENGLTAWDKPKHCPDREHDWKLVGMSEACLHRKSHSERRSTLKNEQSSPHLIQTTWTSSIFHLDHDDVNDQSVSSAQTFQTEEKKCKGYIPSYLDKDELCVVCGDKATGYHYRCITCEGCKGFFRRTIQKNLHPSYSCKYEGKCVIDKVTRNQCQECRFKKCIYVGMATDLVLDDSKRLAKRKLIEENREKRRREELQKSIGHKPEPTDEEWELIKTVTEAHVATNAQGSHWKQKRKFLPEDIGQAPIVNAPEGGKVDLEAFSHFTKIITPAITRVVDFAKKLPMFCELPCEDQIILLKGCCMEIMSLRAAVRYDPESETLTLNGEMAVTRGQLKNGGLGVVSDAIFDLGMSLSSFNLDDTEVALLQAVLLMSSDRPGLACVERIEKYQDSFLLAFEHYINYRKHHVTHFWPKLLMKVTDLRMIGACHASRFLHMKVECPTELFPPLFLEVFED
# Outline: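 Agonist activity was read as beta-lactamase CCF4 fluorescence (405 ex, 460/530 em), scaled between DMSO (0%) and 10 nM T3 (100%), then Hill-fitted for EC50 and efficacy. HEK 293 TR-UAS-bla cells in 2% charcoal/dextran FBS medium were exposed 18 h at 37 C.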
# [10] = biological target: Retinoic acid receptor RXR-alpha (Homo sapiens) (UniProt P19793); test: qHTS assay for small molecule antagonists of retinoid X receptor alpha signaling (AID 588546; active = well fitted inhibition curve with a large enough effect in the signal ratio, with a control signal flat, not every such curve was filed as active; inconclusive = small, poorly fitted or top-dose-only effect, or effect the other way, or a change in a side signal; inactive = no such curve, though single readings can be large or run the other way; the % refers to the signal ratio; also: potency is read from the fitted curve at half-maximal effect;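 as to max response: cells stimulated with 9-cis-retinoic acid as agonist; % is scaled to controls: 0 for no effect and ±100 for the full control effect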); conditions: HEK293T RXRa-UAS-bla, beta-lactamase ratio, antagonist mode
# Outline: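 Beta-lactamase reporter inhibition, read as CCF4 fluorescence ratio (ex 405, em 460/530 nm) after 2 h at RT. HEK293T UAS-bla cells, 2500/well, were stimulated with 9-cis-RA at 500 or 100 nM final alongside test compound for 18 h at 37 C.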
# [11] = biological target: Thyroid hormone receptor beta (Homo sapiens) (UniProt P10828); test: qHTS assay for small molecule antagonists of thyroid hormone receptor beta signaling (AID 588547; active = well fitted inhibition curve with a large enough effect in the signal ratio, with a control signal flat, not every such curve was filed as active; inconclusive = small, poorly fitted or top-dose-only effect, or effect the other way, or a change in a side signal; the % refers to the signal ratio; also: potency is read from the fitted curve at half-maximal effect;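 as to activity change % (negative = inhibition): cells stimulated with 0.4 nM T3 agonist during compound exposure; % is scaled to controls: 0 for no effect and ±100 for the full control effect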); conditions: TR-UAS-bla HEK293, beta-lactamase ratio, antagonist mode, 18 h
# Outline: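 TR-UAS-bla GripTite HEK293 cells in 2% charcoal/dextran FBS medium were preincubated 4 h at 37 C, given compound (0.59 nM to 92 uM) plus 0.4 nM T3 (final) for 18 h, then CCF4 for 2 h at RT; Hill fit gave IC50.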
# [12] = biological target: Luciferin 4-monooxygenase (Photinus pyralis) (UniProt P08659); test: Biochemical firefly luciferase enzyme assay for NPC (AID 624030); also: nearly all actives have a fitted effect of over 70% in size; also: potency is read from the fitted curve at half-maximal effect; conditions: purified P. pyralis luciferase, luminescence, 5 min; series mostly up to 58.6 µM
# Chain of UniProt P08659 (P08659 whole entry, looked up): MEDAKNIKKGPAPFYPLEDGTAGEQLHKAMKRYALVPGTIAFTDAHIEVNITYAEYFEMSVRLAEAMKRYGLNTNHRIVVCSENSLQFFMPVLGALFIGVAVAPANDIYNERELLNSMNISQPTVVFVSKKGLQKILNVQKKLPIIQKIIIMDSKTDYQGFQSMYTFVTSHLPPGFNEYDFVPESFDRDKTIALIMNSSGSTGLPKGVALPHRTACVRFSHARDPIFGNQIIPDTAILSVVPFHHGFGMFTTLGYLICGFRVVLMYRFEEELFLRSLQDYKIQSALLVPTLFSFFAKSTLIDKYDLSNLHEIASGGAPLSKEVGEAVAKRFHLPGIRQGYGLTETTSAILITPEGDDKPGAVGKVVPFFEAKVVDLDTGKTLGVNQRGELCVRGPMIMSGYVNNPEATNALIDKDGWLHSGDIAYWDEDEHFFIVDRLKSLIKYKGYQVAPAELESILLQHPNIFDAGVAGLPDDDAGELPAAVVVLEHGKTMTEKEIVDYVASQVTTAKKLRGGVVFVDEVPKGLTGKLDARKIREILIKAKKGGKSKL
# Outline: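 Counter-screen for direct inhibition of the luciferase enzyme by approved-drug library compounds, run at 10 nM enzyme in 50 mM Tris acetate (final). Luminescence was read within 5 min of enzyme-buffer addition and normalized to PTC124 versus DMSO (0%).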
# [13] = S16 Schwann cell viability assay (CellTiter-Glo assay) (AID 624031); conditions: S16 rat Schwann cells viability, 24 h; series mostly up to 57.5 µM;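 also: native untransfected S16 rat Schwann cells; cellular ATP luminescence as a viability measure; nearly all actives have a fitted effect of over 70% in size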; also: potency is read from the fitted curve at half-maximal effect
# Outline: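 Concentration-effect curves come from CellTiter-Glo luminescence of S16 rat Schwann cells after 24 h compound exposure. Each reading was normalized to DMSO wells (0%) and wells without cells, and curves were ranked by r2 and response magnitude.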
# [14] = S16 Schwann cell PMP22 intronic element beta-lactamase assay (AID 624044; calls by dose curve; also: nearly all actives have a fitted effect of over 15% in size; also: potency is read from the fitted curve at half-maximal effect;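 as to ratio activity, negative = inhibition: 0% = DMSO and -100% = potassium clavulanate positive control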); conditions: S16 rat Schwann cells, PMP22 element beta-lactamase FRET, 24 h; ratio activity, negative = inhibition: at 38.3 µM (top of the series) unless noted
# Outline: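 Beta-lactamase reporter under a PMP22 intronic regulatory element in stable S16 rat Schwann cells; 24 h compound exposure. 460 nm blue signal normalized between DMSO (0%) and potassium clavulanate, with 535 nm FRET tracking viability; curves classed by r2 and response.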
# Tags tell the direction and shape of the fitted curve or compound fluorescence and quenching.
compound,measurement,setting,value
COCCOCCO,activation,[1]; at 76.7 µM (top of the series),inactive: -2.48%
CC(C)Nc1ccc(Nc2ccccc2)cc1,Potency,[2],"inconclusive [inhibitor, partial curve]"
same,Potency,[3],active: 7.08 µM
same,Potency,[4],"inconclusive [inhibitor, single point]"
same,Potency,[5],"inconclusive [inhibitor, single point]"
same,Potency,[6],"inconclusive [cytotoxic, single point]"
Cc1cc(SCc2sc(-c3ccc(C(F)(F)F)c(F)c3)nc2C)ccc1OCC(=O)O,Potency,[4],inactive
CCCC(C)(COC(N)=O)COC(=O)NC(C)C (configuration not stated),Potency,[7],inactive
O=C(O)COc1ccccc1,Potency,[1],"inconclusive [fluorescent, side channel, partial curve, poor fit]"
same,Potency,[8],inactive
CC(C)(C)CC(C)(C)c1ccc(O)cc1,Potency,[9],"inconclusive [side channel, falling, full curve, poor fit]"
same,max response,[10],inconclusive: -36.8%
same,Potency,[11],"inconclusive [cytotoxic, side channel, partial curve, poor fit]"
same,Potency,[12],inactive
CCCCCCCCCC(CC)c1ccc(S(=O)(=O)O)cc1 (configuration not stated),Potency,[1],inactive
same,Potency,[12],"inconclusive [inhibitor, partial curve]"
same,Potency,[13],inactive
Cc1cc(O)ccc1Cl,max response,[10],inactive: -4.22%
same,activity change % (negative = inhibition),[11],inactive: 1.27%
same,"ratio activity, negative = inhibition",[14],inconclusive: 1.06%
CCOCCOC(C)=O,activation,[9],inconclusive: -32%
same,activity change % (negative = inhibition),[11],inactive: 9.89%
CCCN(CCC)c1c([N+](=O)[O-])cc(S(N)(=O)=O)cc1[N+](=O)[O-],Potency,[9],"inconclusive [side channel, falling, full curve, poor fit]"
Nc1ccc(N=Nc2ccccc2)cc1,Potency,[10],"inconclusive [inhibitor, full curve, poor fit]"
same,Potency,[12],active: 5.26 µM
O=C(O)C(Cl)Cl,Potency,[9],"inconclusive [side channel, falling, full curve, poor fit]"
COP(=O)(OC)OC=C(Cl)Cl,Potency,[10],"inconclusive [inhibitor, full curve]"
same,Potency,[11],"inconclusive [cytotoxic, side channel, full curve, poor fit]"
same,Potency,[8],"inconclusive [inhibitor, partial curve]"
same,Potency,[14],active: 15.8 µM
COC(C)(C)CCCC(C)C/C=C/C(C)=C/C(=O)OC(C)C (configuration not stated),Potency,[1],"inconclusive [side channel, rising, partial curve, poor fit]"
same,Potency,[8],"inconclusive [inhibitor, full curve, poor fit]"
O=S(=O)(O)C(F)(F)C(F)(F)C(F)(F)C(F)(F)C(F)(F)C(F)(F)C(F)(F)C(F)(F)F,max response,[10],inactive: -2.01% and inactive: 4.02%
same,activity change % (negative = inhibition),[11],inconclusive: -5.46%
same,Potency,[12],"inconclusive [inhibitor, partial curve]"
O=C(O)CCCOc1ccc(Cl)cc1Cl,Potency,[1],"inconclusive [fluorescent, side channel, full curve, poor fit]"
same,Potency,[12],"inconclusive [inhibitor, partial curve]"
O=C1CCO1,activity change % (negative = inhibition),[11],inactive: 16.1%
C[C@]12CCC(=O)C[C@@H]1CC[C@@H]1[C@@H]2CC[C@]2(C)[C@@H](O)CC[C@@H]12,Potency,[1],active: 7.94 µM
same,activity change % (negative = inhibition),[11],inactive: 2.39%
same,Potency,[8],"inconclusive [inhibitor, partial curve, poor fit]"
CC1(C)C(C=C(Cl)Cl)C1C(=O)OC(C#N)c1cccc(Oc2ccccc2)c1 (configuration not stated),activity change % (negative = inhibition),[11],inconclusive: -13.4%
O=[N+]([O-])c1cc([N+](=O)[O-])c2ccccc2c1,activation,[9],inactive: -9.73%
O=C1c2ccccc2C(=O)c2ccccc21,Potency,[1],active: 35.5 µM
same,Potency,[13],inactive
O=C(O)C(Cl)(Cl)Cl,max response,[10],inconclusive: -5.38%
CN(C)C(=S)SSC(=S)N(C)C,Potency,[10],active: 44.7 µM
same,Potency,[12],"inconclusive [inhibitor, full curve]"
same,Potency,[13],active: 2.56 µM
same,Potency,[8],active: 1.44 µM
same,Potency,[14],"inconclusive [falling, partial curve]"
C=CCN=C=S,activation,[9],inactive: 0.455%
same,activity change % (negative = inhibition),[11],inconclusive: -0.757%
C[C@]12CCC(=O)C=C1CC[C@@H]1[C@@H]2CC[C@]2(C)C(=O)CC[C@@H]12,max response,[10],inconclusive: -101%
same,activity change % (negative = inhibition),[11],inconclusive: 1%
Nc1ccccc1C(=O)O,max response,[10],inactive: 6.99%
same,Potency,[8],"inconclusive [inhibitor, partial curve, poor fit]"
